Reference: the supplement of paper PMC10037445
The full ranking holds about 2,900 compounds; the median of “IRF Lucia reporter activity, fold change vs agonist alone” is about 0.9, and the highest 2% start at about 2.8. Some of the results follow.

How the values were obtained:
[1] = test system: RAW-Dual; assay: IRF Lucia reporter activity, fold change vs agonist alone; cytotoxicity flag (confluency mask): not cytotoxic; higher = enhanced IRF activity
How it was run: (§1)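 RAW-Dual macrophages were seeded in DMEM at 50,000 cells/well in 384-well plates, given 50 nL of library stock by pin tool, and given a PRR agonist 1 h later. Plates were held at 37 °C, 5% CO2 for 20 hours, after which supernatant was read for IRF by QuantiLuc luminescence and for NF-κB by QuantiBlue absorbance at 620 nm. Reporter activity is expressed as fold change over wells that received agonist alone. A well was called cytotoxic when IncuCyte confluency fell below 70% of agonist controls in both mask sets.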

[2] = test system: RAW-Dual; assay: IRF Lucia reporter activity, fold change vs agonist alone; higher = enhanced IRF activity; conditions: agonist: MPLA (TLR4) […]
How it was run: as §1

[3] = test system: RAW-Dual; assay: IRF Lucia reporter activity, fold change vs agonist alone; cytotoxicity flag (confluency mask): cytotoxic (confluency <70% of control); higher = enhanced IRF activity
How it was run: as §1

[4] = agonist: 3'3'-cGAMP (STING) 10 ug/mL
[5] = library stock concentration (final ~1000-fold dilution): 10 mM, cytotoxicity flag (confluency mask): not cytotoxic

Structure (SMILES): Cc1nnc(NC(=O)c2nc(S(=O)(=O)Cc3ccc(F)cc3)ncc2Cl)s1 (library stock concentration (final ~1000-fold dilution): 10 mM)
- IRF Lucia reporter activity [1, 4]: 0.0452
- IRF Lucia reporter activity ([1]; agonist: LPS (TLR4) 0.1 ug/mL): 0.308

Structure (SMILES): C=C(C)C1CCC2(C(=O)O)CCC3(C)C(CCC4C5(C)CCC(O)C(C)(C)C5CCC43C)C12 (configuration not stated) (library stock concentration (final ~1000-fold dilution): 10 mM)
- IRF Lucia reporter activity [1, 4]: 1.04
- IRF Lucia reporter activity ([1]; agonist: LPS (TLR4) 0.1 ug/mL): 1.02

Structure (SMILES): C=C(C)C1CCC2(C(=O)O)CCC3(C)C(CCC4C5(C)CCC(O)C(C)(C)C5CCC43C)C12 (configuration not stated)
- IRF Lucia reporter activity [2, 5]: 0.981

Structure (SMILES): CCCCCOc1ccc(-c2cc(-c3ccc(C(=O)NC4CC(O)C(O)NC(=O)C5C(O)C(C)CN5C(=O)C(C(O)CC(N)=O)NC(=O)C(C(O)C(O)c5ccc(O)c(OS(=O)(=O)O)c5)NC(=O)C5CC(O)CN5C(=O)C(C(C)O)NC4=O)cc3)no2)cc1 (configuration not stated) (library stock concentration (final ~1000-fold dilution): 10 mM water)
- IRF Lucia reporter activity [1, 4]: 0.651
- IRF Lucia reporter activity ([1]; agonist: LPS (TLR4) 0.1 ug/mL): 0.974

Structure (SMILES): CCCCCOc1ccc(-c2cc(-c3ccc(C(=O)NC4CC(O)C(O)NC(=O)C5C(O)C(C)CN5C(=O)C(C(O)CC(N)=O)NC(=O)C(C(O)C(O)c5ccc(O)c(OS(=O)(=O)O)c5)NC(=O)C5CC(O)CN5C(=O)C(C(C)O)NC4=O)cc3)no2)cc1 (configuration not stated)
- IRF Lucia reporter activity ([2]; library stock concentration (final ~1000-fold dilution): 10 mM water, cytotoxicity flag (confluency mask): not cytotoxic): 1.1

Structure (SMILES): CN1CCN(C(=O)c2cc3cc(Cl)ccc3[nH]2)CC1 (library stock concentration (final ~1000-fold dilution): 10 mM)
- IRF Lucia reporter activity [1, 4]: 0.958
- IRF Lucia reporter activity ([1]; agonist: LPS (TLR4) 0.1 ug/mL): 0.89

Structure (SMILES): CN1CCN(C(=O)c2cc3cc(Cl)ccc3[nH]2)CC1
- IRF Lucia reporter activity [2, 5]: 1.13

Structure (SMILES): O=C(O)C1(Cc2cccc(Nc3nccs3)n2)CCC(Oc2cccc(Cl)c2F)CC1 (configuration not stated) (library stock concentration (final ~1000-fold dilution): 10 mM)
- IRF Lucia reporter activity [1, 4]: 0.686
- IRF Lucia reporter activity ([1]; agonist: LPS (TLR4) 0.1 ug/mL): 0.779

Structure (SMILES): O=C(O)C1(Cc2cccc(Nc3nccs3)n2)CCC(Oc2cccc(Cl)c2F)CC1 (configuration not stated)
- IRF Lucia reporter activity [2, 5]: 0.949

Structure (SMILES): N#CC1(c2ccc(NC(=O)c3cccnc3NCc3ccncc3)cc2)CCCC1
- IRF Lucia reporter activity [2, 5]: 1.01

Structure (SMILES): N#CC1(c2ccc(NC(=O)c3cccnc3NCc3ccncc3)cc2)CCCC1 (library stock concentration (final ~1000-fold dilution): 10 mM)
- IRF Lucia reporter activity [1, 4]: 0.173
- IRF Lucia reporter activity ([1]; agonist: LPS (TLR4) 0.1 ug/mL): 1.14

Structure (SMILES): Cl.Cl.c1cc(-c2nc3ccc(OCCCN4CCCC4)cc3o2)ccc1OCCCN1CCCC1 (library stock concentration (final ~1000-fold dilution): 1 mM)
- IRF Lucia reporter activity [1, 4]: 0.861
- IRF Lucia reporter activity ([1]; agonist: LPS (TLR4) 0.1 ug/mL): 1.07

Structure (SMILES): CC(ONC(=O)c1cc(C(F)(F)F)cc(C(F)(F)F)c1)C(=O)Nc1ccc(Cl)cc1 (configuration not stated) (library stock concentration (final ~1000-fold dilution): 10 mM)
- IRF Lucia reporter activity [1, 4]: 0.52
- IRF Lucia reporter activity ([1]; agonist: LPS (TLR4) 0.1 ug/mL): 0.52

Structure (SMILES): CC(Nc1ncnc(N)c1C#N)c1cc2cccc(-c3ccc(=O)n(C)c3)c2c(=O)n1C(C)C (configuration not stated) (library stock concentration (final ~1000-fold dilution): 10 mM)
- IRF Lucia reporter activity [1, 4]: 1.14
- IRF Lucia reporter activity ([1]; agonist: LPS (TLR4) 0.1 ug/mL): 8.45

Structure (SMILES): CC(Nc1ncnc(N)c1C#N)c1cc2cccc(-c3ccc(=O)n(C)c3)c2c(=O)n1C(C)C (configuration not stated)
- IRF Lucia reporter activity [2, 5]: 7.07

Structure (SMILES): CC1OC(OC2C(O)C(OCCc3ccc(O)c(O)c3)OC(CO)C2OC(=O)/C=C/c2ccc(O)c(O)c2)C(O)C(O)C1O (configuration not stated) (library stock concentration (final ~1000-fold dilution): 10 mM)
- IRF Lucia reporter activity [1, 4]: 1.02
- IRF Lucia reporter activity ([1]; agonist: LPS (TLR4) 0.1 ug/mL): 1.15

Structure (SMILES): CC1OC(OC2C(O)C(OCCc3ccc(O)c(O)c3)OC(CO)C2OC(=O)/C=C/c2ccc(O)c(O)c2)C(O)C(O)C1O (configuration not stated)
- IRF Lucia reporter activity [2, 5]: 1.02

Structure (SMILES): COc1ccc2[nH]cc(C=C3C(=O)Nc4ccc(NC(=O)CCN5CCCCC5)cc43)c2c1 (library stock concentration (final ~1000-fold dilution): 10 mM)
- IRF Lucia reporter activity [3, 4]: 0.5
- IRF Lucia reporter activity ([3]; agonist: LPS (TLR4) 0.1 ug/mL): 0.815

Structure (SMILES): Cl.Cl.OCCN1CCN(CC/C=C2/c3ccccc3Sc3ccc(C(F)(F)F)cc32)CC1
- IRF Lucia reporter activity ([2]; library stock concentration (final ~1000-fold dilution): 10 mM, cytotoxicity flag (confluency mask): cytotoxic (confluency <70% of control)): 1.02

Structure (SMILES): Cl.Cl.OCCN1CCN(CC/C=C2/c3ccccc3Sc3ccc(C(F)(F)F)cc32)CC1 (library stock concentration (final ~1000-fold dilution): 10 mM)
- IRF Lucia reporter activity [3, 4]: 0.504
- IRF Lucia reporter activity ([3]; agonist: LPS (TLR4) 0.1 ug/mL): 0.656

Structure (SMILES): COc1c(Cl)cc2c([nH]c3cnccc32)c1NC(=O)c1cccnc1C (library stock concentration (final ~1000-fold dilution): 10 mM)
- IRF Lucia reporter activity [1, 4]: 0.361
- IRF Lucia reporter activity ([1]; agonist: LPS (TLR4) 0.1 ug/mL): 0.346

Structure (SMILES): O=C(/C=C/c1cccnc1)NCCCCC1CCN(C(=O)c2ccccc2)CC1 (library stock concentration (final ~1000-fold dilution): 10 mM)
- IRF Lucia reporter activity [1, 4]: 0.698
- IRF Lucia reporter activity ([1]; agonist: LPS (TLR4) 0.1 ug/mL): 0.695

Structure (SMILES): O=C(/C=C/c1cccnc1)NCCCCC1CCN(C(=O)c2ccccc2)CC1
- IRF Lucia reporter activity [2, 5]: 0.813

Structure (SMILES): CCOC(=O)c1c2c3c(cccc3[nH]c1=O)C(=O)c1ccccc1-2 (library stock concentration (final ~1000-fold dilution): 10 mM)
- IRF Lucia reporter activity [1, 4]: 0.997
- IRF Lucia reporter activity ([1]; agonist: LPS (TLR4) 0.1 ug/mL): 0.492

Structure (SMILES): CN(Cc1cc(Br)cc(Br)c1N)C1CCCCC1 (library stock concentration (final ~1000-fold dilution): 10 mM)
- IRF Lucia reporter activity [3, 4]: 0.733
- IRF Lucia reporter activity ([3]; agonist: LPS (TLR4) 0.1 ug/mL): 1.49

Structure (SMILES): Nc1nc(N)c2nc(-c3cccc(O)c3)c(-c3cccc(O)c3)nc2n1
- IRF Lucia reporter activity [2, 5]: 1.08
